Measurements taken from article PMC4336329 (PLoS ONE, 2015).
The campaign covered roughly 310,000 compounds. About 2,200 (0.71%) showed an effect of 50% or more. Effects have a minus sign here. The list shows a part of the results.

The molecules below were run against human ether-à-go-go-related gene (hERG) potassium channel (human, UniProt Q12809) (assay: primary screen, population patch clamp on CHO cells stably expressing hERG).
Sequence of human ether-à-go-go-related gene (hERG) potassium channel (Q12809 whole entry, looked up): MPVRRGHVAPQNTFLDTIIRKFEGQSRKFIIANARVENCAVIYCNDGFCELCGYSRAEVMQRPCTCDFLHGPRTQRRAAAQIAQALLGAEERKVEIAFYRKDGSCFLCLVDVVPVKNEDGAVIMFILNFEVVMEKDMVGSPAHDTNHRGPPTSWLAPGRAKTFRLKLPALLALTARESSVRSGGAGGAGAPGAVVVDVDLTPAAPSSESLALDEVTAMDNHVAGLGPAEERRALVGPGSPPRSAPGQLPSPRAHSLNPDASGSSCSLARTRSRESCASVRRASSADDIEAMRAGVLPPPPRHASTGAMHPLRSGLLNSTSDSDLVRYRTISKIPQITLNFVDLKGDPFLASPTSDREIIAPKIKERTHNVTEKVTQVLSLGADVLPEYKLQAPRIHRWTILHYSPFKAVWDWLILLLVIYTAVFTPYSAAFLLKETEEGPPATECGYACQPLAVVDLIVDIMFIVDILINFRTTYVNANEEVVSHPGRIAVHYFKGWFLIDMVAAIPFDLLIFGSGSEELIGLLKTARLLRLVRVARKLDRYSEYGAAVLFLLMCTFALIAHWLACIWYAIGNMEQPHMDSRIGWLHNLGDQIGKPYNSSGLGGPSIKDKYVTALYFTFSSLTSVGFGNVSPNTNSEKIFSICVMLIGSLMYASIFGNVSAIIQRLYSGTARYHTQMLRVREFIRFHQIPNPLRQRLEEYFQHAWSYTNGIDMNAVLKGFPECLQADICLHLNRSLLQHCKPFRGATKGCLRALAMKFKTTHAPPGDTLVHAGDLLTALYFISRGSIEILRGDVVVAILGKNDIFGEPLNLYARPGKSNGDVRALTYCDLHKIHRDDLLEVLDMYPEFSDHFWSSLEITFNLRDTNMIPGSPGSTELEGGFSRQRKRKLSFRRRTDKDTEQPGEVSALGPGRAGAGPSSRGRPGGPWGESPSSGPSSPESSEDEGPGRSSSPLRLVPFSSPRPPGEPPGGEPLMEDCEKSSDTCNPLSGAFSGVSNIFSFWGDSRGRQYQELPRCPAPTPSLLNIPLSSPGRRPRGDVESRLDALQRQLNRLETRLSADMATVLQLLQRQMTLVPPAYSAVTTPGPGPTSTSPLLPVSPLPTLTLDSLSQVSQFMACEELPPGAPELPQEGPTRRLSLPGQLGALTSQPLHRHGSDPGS

Structure (SMILES) | hERG current change (%, negative = inhibition) at 1uM
Cc1ccc(C)c(NC(=S)NCc2cccn2C)c1 | -0.17%
Cc1cc(N=Cc2c(O)ccc3cc(Br)ccc23)no1 | 5.18%
CNC(=S)N(C)CCc1cc2c(c(OC)c1C=C1C(=O)NC(=O)NC1=O)OCO2 | 9.86%
CCOP(=O)(OCC)C(C)(C)NC(=O)Nc1ccc(Cl)c(Cl)c1 | 9.82%
Cc1cc(C(=O)N2CCN(c3ccc([N+](=O)[O-])cc3)CC2)no1 | -36%
O=C(CS(=O)(=O)c1ccc(Cl)c(Cl)c1)Nc1ccccc1Cl | 22.4%
COc1cc(C(=O)NC(CCSC)C(=O)OCc2cc([N+](=O)[O-])cc3c2OCOC3)cc(OC)c1OC (centres unmarked) | -0.836%
CS(=O)(=O)c1ccc2nc(NC(=O)c3ccc(Cl)cc3)sc2c1 | 6.92%
O=C(CNC(=O)C1CCCCC1)NNC(=O)c1ccc(Cl)cc1Cl | 11.6%
Cc1cc(Oc2ccc3ccccc3c2)nc(SCC(=O)c2ccccc2)n1 | 11.5%
C/C(=N\NC(=O)c1n[nH]c2c1CCC2)c1ccco1 | 10.2%
CCOC(=O)c1c(NC(C)=O)sc2c(O)c(CN3CCN(CC)CC3)ccc12 | 11.2%
Cc1cc(C)n2nc(C(=O)OCCOc3cccc(Br)c3)nc2n1 | -11%
COc1ccccc1N1CCN(C(=O)c2oc3ccc(Br)cc3c2C)CC1 | 14.2%
Nc1ccc(S(=O)(=O)O)cn1 | 4.06%
CN(CCNC(=O)C1CCN(S(=O)(=O)N2CCOCC2)CC1)CCc1ccccc1 | -2.64%
CN(CP(=O)(O)CCc1ccccc1)S(C)(=O)=O | 11.4%
O=C(COc1ccc2oc3c(c2c1)CCCC3)Nc1ccccn1 | 9.85%
Cc1nc(SCC(=O)Nc2ccc(F)cc2)c(C#N)c(C)c1CC(=O)c1ccc(Br)cc1 | 11.2%
O=C(CNS(=O)(=O)c1ccccc1)OCC(=O)c1ccccc1Cl | 9.62%
COC(=O)c1c(NC(=S)NN2CCOCC2)sc2c1CCCC2 | 7.1%
CCOC(=O)CSc1nc(C)cc(=O)[nH]1 | 15.2%

Structure (SMILES) | hERG current change (%, negative = inhibition) at 1uM
COc1ccc(NC(=O)Cn2c3ccccc3c3nc4n(c(=O)c32)CCS4)cc1OC | 21.4%
COC(=O)c1cccc(NC(=O)Cc2nc(-c3ccccc3)sc2-c2ccc(C)cc2)c1 | 12.9%
O=C(CN1CCN(C(=O)c2ccc(-c3nc4ccccc4s3)o2)CC1)Nc1ccc(F)cc1 | -42.8%
Oc1ccc(CNc2ccc(F)cc2)c2cccnc12 | 9.56%
O=C(CN1C(=O)C2C3C=CC(C3)C2C1=O)OCC(=O)c1ccccc1 (centres unmarked) | 4.53%
Cc1ccc(CSc2nnnn2C)cc1 | 11.1%
Cc1cc(C)c2cc(C(c3nnnn3C3CCCC3)N3CCOCC3)c(=O)[nH]c2c1 (centres unmarked) | 9.74%
CN(C)c1ccc(C(=S)N2CCN(C(=S)Nc3ccccc3)CC2)cc1 | 18.7%
O=C(COC(=O)COc1ccccc1[N+](=O)[O-])NC1CCCC1 | 15.8%
CC(C)(C)C(=O)NNC(=O)COc1ccc2ccccc2c1Br | 12%
COc1ccc(-c2cc3ccc(OCC(C)=O)cc3oc2=O)cc1 | 22.2%
COc1ccc(CN2C(=O)CC(=O)NC2=S)cc1 | 13%
Cc1ccc(S(=O)(=O)N2CCCC(C(=O)NCc3ccc4c(c3)OCO4)C2)cc1 (centres unmarked) | 8.44%
CC(=O)C1=C(O)C(=O)N(c2ccc(O)cc2)C1c1ccccc1[N+](=O)[O-] (centres unmarked) | 11.5%
COc1ccc(N2CCN(C(=O)C3CCN(S(=O)(=O)c4ccc(F)cc4)CC3)CC2)cc1 | 0.532%
CCOc1ccc(C(=O)C(C)OC(=O)c2nc(Cl)ccc2Cl)cc1 (centres unmarked) | -1.36%
CCOc1ccc(C2C(C(=O)c3cccs3)=C(O)C(=O)N2CCCn2ccnc2)cc1 (centres unmarked) | 2.41%
CC(=O)c1ccc(NC(=O)c2sc3nc(N4CCOCC4)c4c(c3c2N)CCCC4)cc1 | 13.3%
COC(=O)C1C(c2ccccc2)C(C(=O)OCc2ccco2)C1c1ccccc1 (centres unmarked) | 6.64%
CCN(CC)S(=O)(=O)c1ccc(-c2nnc(SCC(=O)N3CCc4ccccc43)o2)cc1 | 10.8%
COc1ccc(C(CNC(=O)COc2c(C)cc(C)cc2C)N2CCOCC2)cc1 (centres unmarked) | 14.3%
CCN(C(=O)COC(=O)/C=C/c1ccc(O)c(OC)c1)C1CCS(=O)(=O)C1 (centres unmarked) | 9.78%
